# Some of the results follow.
# Tested on: HSkMC (human skeletal muscle cells)
# Experiment: cytotoxicity call (relative viability < 0.9)
# Conditions: 10 µM
row,SMILES,cytotoxicity call
1,C[C@@H]1CN([C@H](C)CO)C(=O)c2cccc(NS(=O)(=O)c3cccs3)c2O[C@H]1CN(C)Cc1ccncc1,inactive
2,O=C(C[C@@H]1CC[C@H](NC(=O)CN2CCOCC2)[C@H](CO)O1)NC1CCC1,inactive
3,O=C(N[C@@H]1C=C[C@@H](CC(=O)N2CCOCC2)O[C@@H]1CO)c1ccccn1,inactive
4,C[C@H](CO)N1C[C@H](C)[C@@H](CN(C)Cc2cccnc2)Oc2cc(C#CCN(C)C)ccc2S1(=O)=O,inactive
5,O=C(Nc1ccc(Cl)cc1C(=O)c1ccc(Cl)cc1)c1cc(Br)ccc1NS(=O)(=O)c1ccc(Cl)cc1,inactive
6,CC(/C=C/C(=O)NO)=C\c1ccccc1OCc1cn(-c2cccc(N(S(=O)(=O)c3ccc(C)cc3)S(=O)(=O)c3ccc(C)cc3)c2)nn1,active
7,COc1ccc(CN(C)C[C@@H]2OCCCC[C@H](C)Oc3ccc(NC(=O)c4ccccc4)cc3C(=O)N([C@@H](C)CO)C[C@@H]2C)cc1,inactive
8,CCCC(=O)Nc1ccc2c(c1)OC[C@@H](C)N(S(=O)(=O)c1cn(C)cn1)C[C@H](C)[C@@H](OC)CN(C)C2=O,inactive
9,COCC(=O)N(C)C[C@@H]1Oc2cc(-c3ccc(C#N)cc3)ccc2S(=O)(=O)N([C@H](C)CO)C[C@@H]1C,inactive
10,C[C@@H]1CN([C@@H](C)CO)C(=O)Cc2cc(NS(=O)(=O)c3ccc(F)cc3)ccc2O[C@@H]1CN(C)C(=O)Nc1cccc2ccccc12,inactive
11,C[C@H](CO)N1C[C@H](C)[C@@H](CN(C)Cc2ccc(-c3ccccc3)cc2)Oc2ncc(-c3cccnc3)cc2C1=O,inactive
12,C/C=C/c1cnc2c(c1)C(=O)N([C@H](C)CO)C[C@H](C)[C@@H](CN(C)S(=O)(=O)c1ccc(OC)cc1)O2,inactive
13,C[C@H]1CN([C@@H](C)CO)C(=O)c2cccc(NS(C)(=O)=O)c2O[C@H]1CN(C)C(=O)Nc1ccc(F)cc1,inactive
14,C[C@H](CO)N1C[C@H](C)[C@H](CN(C)Cc2ccc(C(=O)Nc3ccccc3N)cc2)Oc2ccc(NC(=O)Cn3cnnn3)cc2CC1=O,inactive
15,C/C=C/c1ccc2c(c1)O[C@H](CN(C)S(=O)(=O)c1ccccc1)[C@H](C)CN([C@@H](C)CO)S2(=O)=O,inactive
16,C[C@@H]1CN([C@@H](C)CO)C(=O)c2cc(NC(=O)c3ccccc3)ccc2O[C@@H](C)CCCCO[C@@H]1CN(C)C(=O)Cc1ccccc1,inactive
17,C[C@H](CO)N1C[C@H](C)[C@@H](CN(C)S(=O)(=O)c2cn(C)cn2)Oc2ccc(NS(=O)(=O)c3cccs3)cc2C1=O,inactive
18,CC[C@@H](C)NC(=O)Cn1cnc2c1c(=O)n(C)c(=O)n2C,inactive
19,C[C@@H]1CN([C@@H](C)CO)C(=O)c2c(c3ccccc3n2C)-c2ccccc2CO[C@H]1CN(C)C(=O)NC1CCCCC1,inactive
20,COc1ccc(NC(=O)N(C)C[C@H]2Oc3c(NS(=O)(=O)c4cn(C)cn4)cccc3C(=O)N([C@H](C)CO)C[C@@H]2C)cc1,inactive

row,SMILES,cytotoxicity call
1,COc1ccc(S(=O)(=O)Nc2ccc3c(c2)C(=O)N([C@H](C)CO)C[C@H](C)[C@H](CN(C)S(=O)(=O)c2cccs2)O3)cc1,inactive
2,CC1CCC2(C)C(C=O)=CCCC2C1(C)CC1OC(O)C(=O)C12CO2 (stereo not given),inactive
3,COc1ccc(CN(C)C[C@H]2OCCCC[C@@H](C)Oc3ccc(NC(=O)NC4CCCCC4)cc3C(=O)N([C@@H](C)CO)C[C@H]2C)cc1,inactive
4,COc1ccc(S(=O)(=O)Nc2ccc3c(c2)C(=O)N([C@H](C)CO)C[C@@H](C)[C@H](CN(C)S(=O)(=O)c2ccc(Cl)cc2)OCCCC[C@H](C)O3)cc1,inactive
5,C[C@@H]1CN([C@@H](C)CO)S(=O)(=O)c2ccc(-c3ccc(C#N)cc3)cc2O[C@@H]1CN(C)C(=O)CN(C)C,inactive
6,CCOc1ccc(Cc2cc(C3OC(CO)C(O)C(O)C3O)ccc2Cl)cc1 (stereo not given),inactive
7,COc1ccc(S(=O)(=O)N(C)C[C@H]2Oc3ccc(N(C)C)cc3C(=O)N([C@H](C)CO)C[C@H]2C)cc1,inactive
8,C[C@H](CO)N1C[C@H](C)[C@@H](CN(C)S(=O)(=O)c2ccc(F)cc2)Oc2ccc(NC(=O)Nc3cccc4ccccc34)cc2C1=O,inactive
9,C[C@@H]1CN([C@@H](C)CO)C(=O)c2cccc(NC(=O)c3cnccn3)c2O[C@@H]1CN(C)C(=O)Nc1ccc(F)cc1,inactive
10,O=C(C[C@@H]1CC[C@@H]2[C@H](COC[C@H](O)CN2S(=O)(=O)c2cccc(Cl)c2)O1)NCCCN1CCOCC1,inactive
11,C[C@@H]1CCCCO[C@H](CN(C)C(=O)Nc2cccc3ccccc23)[C@@H](C)CN([C@H](C)CO)C(=O)c2cc(NS(=O)(=O)c3cn(C)cn3)ccc2O1,inactive
12,c1ccc2nc(-c3cn[nH]c3)ccc2c1,inactive
13,C=CCCC(=O)O[C@@H](c1ccccc1)[C@@H](C)N(C)C(=O)[C@H](CC=C)NC(=O)OCC1c2ccccc2-c2ccccc21,inactive
14,CCCCCCCCCCCCC[N+](C)(C)Cc1ccccc1,inactive
15,C[C@H]1CN([C@@H](C)CO)C(=O)c2cccc(NC(=O)C3CCOCC3)c2O[C@@H]1CN(C)Cc1ccc(Oc2ccccc2)cc1,inactive
16,C[C@H]1CCCCO[C@@H](CN(C)C(=O)NC2CCCCC2)[C@@H](C)CN([C@@H](C)CO)C(=O)c2cc(NS(=O)(=O)c3ccc(F)cc3)ccc2O1,inactive
17,CC[C@H](C)[C@H](NC(=O)[C@H](Cc1ccc(O)cc1)NC(=O)[C@@H](NC(=O)[C@@H](CCCNC(=N)N)NC(=O)[C@@H](N)CC(=O)O)C(C)C)C(=O)N[C@@H](Cc1cnc[nH]1)C(=O)N1CCC[C@@H]1C(=O)N[C@H](Cc1ccccc1)C(=O)O,inactive
18,C[C@@H]1CN([C@H](C)CO)C(=O)c2cccc(NC(=O)c3cnccn3)c2O[C@@H]1CN(C)S(=O)(=O)c1ccc(Cl)cc1,inactive
19,O=C(C[C@H]1CC[C@H]2[C@@H](COC[C@@H](O)CN2C(=O)c2cnccn2)O1)NCc1ccc(Oc2ccccc2)cc1,inactive
20,C[C@@H]1CCCCO[C@@H](CN(C)Cc2ccc(C(F)(F)F)cc2)[C@@H](C)CN([C@H](C)CO)C(=O)c2cc(NC(=O)Cc3ccccc3)ccc2O1,inactive
